The record followed here is PMC9911399, “Two distinct binding modes provide the RNA-binding protein RbFox with extraordinary sequence specificity”.

T1: RBFOX1 RRM RbFoxmut (Fox-RRM*) (Homo sapiens, UniProt Q9NWB1 109-208, R118D;E147R;N151S;E152T)
T1 sequence: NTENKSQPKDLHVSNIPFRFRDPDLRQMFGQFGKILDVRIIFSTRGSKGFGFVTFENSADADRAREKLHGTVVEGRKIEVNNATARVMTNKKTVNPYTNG

B1: AAGGCCA (DNA:RNA)
RNA: GGGAGACCGGAAUUCAGAUUGUCCAAGGCCAUUAAAUCCCGUCGUAGCCACCA
DNA 1: CAATCTGAATTCCGGTCTCCC
DNA 2: TGGTGGCTACGACGGGATT
B2: CGUACUG (DNA:RNA)
RNA: B1 RNA with A25C, A26G, G27U, G28A, C30U, A31G
DNA 1: CAATCTGAATTCCGGTCTCCC
DNA 2: TGGTGGCTACGACGGGATT
B3: GUGCGGU (DNA:RNA)
RNA: B1 RNA with A25G, A26U, G28C, C29G, C30G, A31U
DNA 1: CAATCTGAATTCCGGTCTCCC
DNA 2: TGGTGGCTACGACGGGATT
B4: AUAAACU (DNA:RNA)
RNA: B1 RNA with A26U, G27A, G28A, C29A, A31U
DNA 1: CAATCTGAATTCCGGTCTCCC
DNA 2: TGGTGGCTACGACGGGATT
B5: AGUAUAU (DNA:RNA)
RNA: B1 RNA with A26G, G27U, G28A, C29U, C30A, A31U
DNA 1: CAATCTGAATTCCGGTCTCCC
DNA 2: TGGTGGCTACGACGGGATT
B6: GUCAACC (DNA:RNA)
RNA: B1 RNA with A25G, A26U, G27C, G28A, C29A, A31C
DNA 1: CAATCTGAATTCCGGTCTCCC
DNA 2: TGGTGGCTACGACGGGATT
B7: AGGCAAU (DNA:RNA)
RNA: B1 RNA with A26G, G28C, C29A, C30A, A31U
DNA 1: CAATCTGAATTCCGGTCTCCC
DNA 2: TGGTGGCTACGACGGGATT
B8: GUGGAUG (DNA:RNA)
RNA: B1 RNA with A25G, A26U, C29A, C30U, A31G
DNA 1: CAATCTGAATTCCGGTCTCCC
DNA 2: TGGTGGCTACGACGGGATT
B9: GCAGGAA (DNA:RNA)
RNA: B1 RNA with A25G, A26C, G27A, C29G, C30A
DNA 1: CAATCTGAATTCCGGTCTCCC
DNA 2: TGGTGGCTACGACGGGATT
B10: AAUACCU (DNA:RNA)
RNA: B1 RNA with G27U, G28A, A31U
DNA 1: CAATCTGAATTCCGGTCTCCC
DNA 2: TGGTGGCTACGACGGGATT
B11: AGUAAUU (DNA:RNA)
RNA: B1 RNA with A26G, G27U, G28A, C29A, C30U, A31U
DNA 1: CAATCTGAATTCCGGTCTCCC
DNA 2: TGGTGGCTACGACGGGATT
B12: AGCUAGA (DNA:RNA)
RNA: B1 RNA with A26G, G27C, G28U, C29A, C30G
DNA 1: CAATCTGAATTCCGGTCTCCC
DNA 2: TGGTGGCTACGACGGGATT
B13: AUUAACG (DNA:RNA)
RNA: B1 RNA with A26U, G27U, G28A, C29A, A31G
DNA 1: CAATCTGAATTCCGGTCTCCC
DNA 2: TGGTGGCTACGACGGGATT
B14: AUCCCGC (DNA:RNA)
RNA: B1 RNA with A26U, G27C, G28C, C30G, A31C
DNA 1: CAATCTGAATTCCGGTCTCCC
DNA 2: TGGTGGCTACGACGGGATT
B15: CUACCCA (DNA:RNA)
RNA: B1 RNA with A25C, A26U, G27A, G28C
DNA 1: CAATCTGAATTCCGGTCTCCC
DNA 2: TGGTGGCTACGACGGGATT
B16: UCGGGCC (DNA:RNA)
RNA: B1 RNA with A25U, A26C, C29G, A31C
DNA 1: CAATCTGAATTCCGGTCTCCC
DNA 2: TGGTGGCTACGACGGGATT
B17: GCGAGAC (DNA:RNA)
RNA: B1 RNA with A25G, A26C, G28A, C29G, C30A, A31C
DNA 1: CAATCTGAATTCCGGTCTCCC
DNA 2: TGGTGGCTACGACGGGATT
B18: GAUCCUC (DNA:RNA)
RNA: B1 RNA with A25G, G27U, G28C, C30U, A31C
DNA 1: CAATCTGAATTCCGGTCTCCC
DNA 2: TGGTGGCTACGACGGGATT
B19: ACCUCAC (DNA:RNA)
RNA: B1 RNA with A26C, G27C, G28U, C30A, A31C
DNA 1: CAATCTGAATTCCGGTCTCCC
DNA 2: TGGTGGCTACGACGGGATT
B20: GUGACAA (DNA:RNA)
RNA: B1 RNA with A25G, A26U, G28A, C30A
DNA 1: CAATCTGAATTCCGGTCTCCC
DNA 2: TGGTGGCTACGACGGGATT
B21: CGUGCAU (DNA:RNA)
RNA: B1 RNA with A25C, A26G, G27U, C30A, A31U
DNA 1: CAATCTGAATTCCGGTCTCCC
DNA 2: TGGTGGCTACGACGGGATT
B22: CCGUCCA (DNA:RNA)
RNA: B1 RNA with A25C, A26C, G28U
DNA 1: CAATCTGAATTCCGGTCTCCC
DNA 2: TGGTGGCTACGACGGGATT
B23: ACUCAAG (DNA:RNA)
RNA: B1 RNA with A26C, G27U, G28C, C29A, C30A, A31G
DNA 1: CAATCTGAATTCCGGTCTCCC
DNA 2: TGGTGGCTACGACGGGATT
B24: UUAUAGA (DNA:RNA)
RNA: B1 RNA with A25U, A26U, G27A, G28U, C29A, C30G
DNA 1: CAATCTGAATTCCGGTCTCCC
DNA 2: TGGTGGCTACGACGGGATT
B25: GCUUAUG (DNA:RNA)
RNA: GGGAGACCGGAAUUCAGAUUGUCCGCUUAUGUUAAAUCCCGUCGUAGCCACCA
DNA 1: CAATCTGAATTCCGGTCTCCC
DNA 2: TGGTGGCTACGACGGGATT
B26: GUACAAG (DNA:RNA)
RNA: B25 RNA with C26U, U27A, U28C, U30A
DNA 1: CAATCTGAATTCCGGTCTCCC
DNA 2: TGGTGGCTACGACGGGATT
B27: UCUUGAG (DNA:RNA)
RNA: B25 RNA with G25U, A29G, U30A
DNA 1: CAATCTGAATTCCGGTCTCCC
DNA 2: TGGTGGCTACGACGGGATT
B28: ACUGAGU (DNA:RNA)
RNA: B25 RNA with G25A, U28G, U30G, G31U
DNA 1: CAATCTGAATTCCGGTCTCCC
DNA 2: TGGTGGCTACGACGGGATT
B29: UAACAUA (DNA:RNA)
RNA: B1 RNA with A25U, G27A, G28C, C29A, C30U
DNA 1: CAATCTGAATTCCGGTCTCCC
DNA 2: TGGTGGCTACGACGGGATT
B30: AAGUUGU (DNA:RNA)
RNA: B1 RNA with G28U, C29U, C30G, A31U
DNA 1: CAATCTGAATTCCGGTCTCCC
DNA 2: TGGTGGCTACGACGGGATT
B31: CGCGAUC (DNA:RNA)
RNA: B25 RNA with G25C, C26G, U27C, U28G, G31C
DNA 1: CAATCTGAATTCCGGTCTCCC
DNA 2: TGGTGGCTACGACGGGATT

Substitutions are numbered along the chain they refer to; changes in the protein carry UniProt numbers. The list shows a part of the results.

This assay concerns the target T1, RBFOX1 RRM RbFoxmut (Fox-RRM*). As to the kind of experiment: EMSA; HiTS-Eq, 1 nM pool, 10 min; buffer printed only for the single-RNA assays: 10 mM Tris pH 7.5, 150 mM NaCl, 3.4 mM EDTA, 0.001% NP-40, 30 C. The conditions noted are these: tags: His6 N-terminal (pET28a); label: 5' 32P. In outline:
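Purified RbFox RRM (wild type or mutant) was equilibrated for 10 min in 50 µL with 1 nM of a 5′-radiolabelled pool of RNA with 7 randomized nucleotides, its flanks annealed to DNA oligonucleotides, across increasing protein concentrations. Free RNA was separated by 8% native PAGE, excised, reverse-transcribed, PCR-barcoded and sequenced on an Illumina HiSeq 2500. Relative association constants came from read-count changes of each variant against the control reaction, normalised to the cognate motif.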
A general note: In EMSA bound probe runs differently from free probe, usually more slowly.
Consider B1, for which the binding signal was 0.0987 KA relative to UGCAUGU.

Take B2: the binding signal is 0.0903 KA relative to UGCAUGU.

In the case of B3, the binding signal is 0.146 KA relative to UGCAUGU.

For the molecule B4, the binding signal was 0.0949 KA relative to UGCAUGU.

B5: the binding signal is 0.141 KA relative to UGCAUGU.

On to B6, for which the binding signal was 0.06 KA relative to UGCAUGU.

In the case of B7, the binding signal is 0.0548 KA relative to UGCAUGU.

Turning to B8, the binding signal was 1.04 KA relative to UGCAUGU.

As for B9, the binding signal is 0.113 KA relative to UGCAUGU.

In the case of B10, the binding signal is 0.0691 KA relative to UGCAUGU.

As to B11, the binding signal is 0.08 KA relative to UGCAUGU.

Consider B12, for which the binding signal is 0.118 KA relative to UGCAUGU.

As to B13, the binding signal was 0.134 KA relative to UGCAUGU.

Take B14: the binding signal was 0.078 KA relative to UGCAUGU.

For B15, the binding signal was 0.0706 KA relative to UGCAUGU.

Consider B16, for which the binding signal was 0.147 KA relative to UGCAUGU.

With B17, the binding signal was 0.0912 KA relative to UGCAUGU.

As to B18, the binding signal is 0.043 KA relative to UGCAUGU.

For the molecule B19, the binding signal was 0.107 KA relative to UGCAUGU.

Regarding B20, the binding signal is 0.0515 KA relative to UGCAUGU.

As to B21, the binding signal is 0.102 KA relative to UGCAUGU.

Take B22: the binding signal is 0.0522 KA relative to UGCAUGU.

Regarding B23, the binding signal was 0.124 KA relative to UGCAUGU.

As to B24, the binding signal is 0.0835 KA relative to UGCAUGU.

As to B25, the binding signal was 0.142 KA relative to UGCAUGU.

As for B26, the binding signal is 0.0906 KA relative to UGCAUGU.

Consider B27, for which the binding signal is 0.125 KA relative to UGCAUGU.

On to B28, for which the binding signal is 0.0926 KA relative to UGCAUGU.

Regarding B29, the binding signal was 0.0756 KA relative to UGCAUGU.

As to B30, the binding signal is 0.176 KA relative to UGCAUGU.

Regarding B31, the binding signal is 0.0943 KA relative to UGCAUGU.
